Laboratory results taken from the supplement of paper PMC12217912.
This is one part of the list. Sequences were assembled here from the parent chain. Inactive controls read about 0.05.

B1: TEV protease; numbered along this chain (parent)
chain: MGESLFKGPRDYNPISSSICHLTNESDGHTTSLYGIGFGPFIITNKHLFRRNNGTLVVQSLHGVFKVKDTTTLQQHLVDGRDMIIIRMPKDFPPFPQKLKFREPQREERICLVTTNFQTKSMSSMVSDTSCTFPSGDGIFWKHWIQTKDGQCGSPLVSTRDGFIVGIHSASNFTNTNNYFTSVPKNFMELLTNQEAQQWVSGWRLNADSVLWGGHKVFMVKPEEPFQPVKEATQL

Variants of: B1
Assay: raw area under fraction-flipped curve 0-4 h after induction (AUC4h, not background-subtracted), DNA-recorder readout of cleavage of the substrate (dimensionless); higher = more cleavage of the substrate by the protease variant
Details: temperature: 34 °C; time window: 0-4 h after rhamnose induction
Description: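 In vivo DNA recorder in E. coli TOP10(DE3) ΔrhaA at 34 °C. Each TEVp single-site mutant (parent TEVp 0) is paired with a single-site variant of the 7-mer TEVs (canonical ENLYFQ|S). The substrate sits between flexible linkers in a Bxb1-sfGFP-TEVs-SsrA fusion, so cleavage stabilises Bxb1 and speeds flipping of a recombination array, read by NGS. The value is the raw area under the fraction-flipped curve over 0-4 h after rhamnose induction (AUC4h), with ≥20 reads per time point. It is not background-subtracted; inactive controls average about 0.047.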
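Also: Bxb1 expression induced with 0.2% (w/v) L-rhamnose at OD600 near 0.5, cultures sampled hourly, flipped fraction per protease–substrate barcode pair counted by paired-end Illumina sequencing.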

| Variant | area with substrate ENLYFQA | area with substrate ENLYFQC | area with substrate ENLYFQG | area with substrate ENLYFQI | area with substrate ENLYFQK | area with substrate ENLYFQL | area with substrate ENLYFQN | area with substrate ENLYFQP | area with substrate ENLYFQR | area with substrate ENLYFQS | area with substrate ENLYFQT | area with substrate ENLYFQV | area with substrate ENLYFQW | area with substrate ENLYFQY | area with substrate ENLYFQD | area with substrate ENLYFQM | area with substrate ENLYFQF | area with substrate ENLYFQE | area with substrate ENLYFQH | area with substrate ENLYFQQ |
| --- | --- | --- | --- | --- | --- | --- | --- | --- | --- | --- | --- | --- | --- | --- | --- | --- | --- | --- | --- | --- |
| R106S | 0.0938 | 0.109 | 0.112 | 0.048 | 0.0488 | 0.0659 | 0.0787 | 0.0653 | 0.0618 | 0.1 | 0.0663 | 0.0652 | 0.0757 | 0.076 | – | – | – | – | – | – |
| P134W | 0.0869 | 0.0643 | 0.0594 | 0.0389 | 0.0205 | – | 0.0647 | 0.0716 | – | 0.0683 | – | – | – | 0.0476 | 0.0504 | 0.0646 | – | – | – | – |
| V113S | 0.0614 | 0.0799 | 0.0689 | 0.0405 | 0.0404 | – | 0.0351 | – | – | 0.0652 | 0.0461 | – | – | – | – | 0.0616 | 0.0409 | – | – | – |
| F117E | 0.12 | 0.113 | – | 0.0658 | – | – | 0.074 | – | – | 0.0887 | 0.0644 | 0.0593 | 0.0686 | 0.0953 | – | 0.0782 | – | – | – | – |
| V126C | 0.0932 | – | – | – | 0.0642 | – | – | 0.0219 | 0.046 | 0.11 | – | – | – | – | – | – | – | – | – | – |
| T71V | 0.0884 | 0.0925 | 0.0872 | 0.117 | 0.0716 | 0.0503 | – | – | 0.0508 | 0.091 | 0.0768 | – | 0.0582 | 0.0872 | – | 0.0763 | 0.0547 | 0.0612 | 0.0746 | 0.0734 |
| K90H | 0.0984 | 0.129 | 0.105 | 0.0546 | 0.0606 | 0.057 | 0.0799 | – | 0.065 | 0.1 | 0.0692 | 0.0512 | 0.0688 | – | – | 0.101 | 0.0882 | – | 0.0765 | – |
| K90V | 0.112 | 0.125 | 0.0962 | 0.0664 | 0.0703 | 0.0723 | 0.0613 | – | – | 0.103 | 0.0625 | 0.058 | 0.0544 | 0.063 | 0.0698 | 0.0845 | – | – | – | 0.0822 |
| T70L | 0.0742 | 0.0752 | 0.0729 | – | 0.063 | 0.0691 | 0.0744 | – | 0.0646 | 0.082 | 0.064 | – | 0.0498 | – | 0.0808 | 0.0501 | – | – | – | – |
| I84S | 0.0689 | 0.066 | – | 0.0578 | 0.06 | 0.0516 | 0.0675 | – | 0.0597 | 0.0666 | 0.0725 | – | 0.0538 | – | 0.0595 | 0.0661 | – | – | 0.0584 | – |
| I110K | 0.0562 | 0.066 | 0.0603 | 0.0527 | 0.0485 | 0.05 | – | 0.0507 | 0.013 | 0.0568 | 0.0595 | 0.0414 | 0.0508 | 0.052 | – | 0.0559 | – | – | 0.063 | 0.0665 |
| I85Y | 0.056 | – | 0.0549 | 0.0615 | – | 0.0612 | 0.064 | 0.0715 | 0.0724 | 0.0606 | 0.0747 | – | 0.0584 | 0.0519 | 0.0586 | 0.0586 | – | 0.0376 | – | 0.0603 |
| Q75E | 0.0661 | – | – | – | 0.0475 | 0.0551 | 0.0594 | 0.0676 | 0.0538 | 0.0698 | 0.065 | 0.0259 | – | – | – | – | – | 0.0542 | – | – |
| Q75W | 0.0669 | 0.0718 | – | 0.0484 | 0.0608 | 0.0466 | – | – | 0.0616 | 0.0666 | – | 0.0597 | 0.0748 | – | 0.065 | 0.0638 | – | – | 0.0674 | – |
| P94T | 0.0953 | 0.106 | – | 0.0654 | 0.063 | – | 0.0793 | – | – | 0.115 | 0.0589 | – | – | 0.0923 | – | – | – | – | – | – |
| P94W | 0.0883 | 0.103 | 0.0766 | 0.0514 | 0.0742 | 0.0641 | 0.0721 | 0.067 | 0.0584 | 0.101 | 0.0622 | 0.0504 | 0.0552 | 0.0706 | – | 0.0324 | 0.0702 | – | 0.0779 | – |
| K68A | 0.0831 | 0.225 | 0.0914 | – | 0.0693 | 0.0681 | – | 0.0427 | 0.0771 | 0.107 | 0.0641 | – | 0.0599 | – | 0.0695 | 0.09 | – | – | – | 0.118 |
| K68I | 0.0981 | 0.109 | 0.0888 | 0.0585 | 0.062 | 0.0661 | 0.065 | 0.0607 | 0.054 | 0.0959 | 0.0591 | – | 0.0583 | 0.0889 | 0.0675 | 0.0944 | – | – | 0.0695 | 0.0705 |
| S123N | 0.105 | 0.107 | 0.161 | 0.0592 | 0.0652 | – | 0.0872 | – | 0.0561 | 0.11 | – | 0.089 | – | 0.0767 | 0.0747 | 0.101 | 0.0922 | – | 0.106 | – |
| D69S | 0.0757 | 0.0858 | 0.0977 | 0.0489 | 0.0544 | 0.0578 | 0.0612 | – | 0.0568 | 0.0864 | 0.0639 | 0.0577 | 0.0606 | 0.0599 | 0.0683 | 0.0918 | 0.0768 | – | 0.0671 | 0.0707 |
| T114R | 0.111 | 0.128 | 0.0891 | – | 0.0657 | – | 0.105 | 0.0623 | 0.082 | 0.119 | 0.0695 | – | 0.071 | 0.055 | 0.0897 | 0.137 | – | – | 0.0968 | 0.0664 |
| T132C | 0.112 | 0.117 | 0.116 | 0.0447 | 0.0463 | 0.0547 | 0.0871 | 0.0804 | 0.0687 | 0.103 | 0.0657 | 0.0559 | 0.0104 | – | – | 0.0975 | – | – | – | 0.0607 |
| M122I | 0.111 | – | 0.144 | 0.0764 | 0.0816 | 0.0606 | 0.0836 | – | 0.052 | 0.104 | – | – | 0.0591 | – | 0.0742 | – | – | – | – | – |
| M122V | 0.159 | 0.127 | 0.103 | 0.0688 | 0.0492 | – | 0.0778 | – | 0.0615 | 0.103 | 0.0589 | – | 0.0712 | 0.0921 | – | 0.107 | – | – | – | – |
| Q105I | 0.116 | – | 0.128 | 0.0538 | 0.067 | 0.0587 | – | – | 0.0677 | 0.104 | 0.0747 | 0.0645 | 0.0783 | – | – | 0.0755 | – | 0.0596 | – | – |
| Q105L | 0.105 | 0.135 | 0.0809 | – | 0.0729 | – | – | – | 0.0685 | 0.108 | 0.081 | – | 0.0674 | 0.0945 | – | – | – | – | 0.101 | 0.082 |
| C111D | 0.0497 | 0.0674 | 0.0651 | 0.0552 | 0.0632 | 0.0617 | 0.0553 | – | 0.0567 | 0.0645 | 0.0501 | – | 0.0457 | 0.0612 | – | 0.0638 | 0.059 | – | 0.0459 | – |
